Where a name gives a salt, the structure may show the parent alone. The campaign covered roughly 1,500 compounds. About 30 (2%) showed activity.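 The calls were made as follows: active = robust z-score below -2; a few such results were not called.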 This is one part of the list.

In the experiment the test system is optoTopBP1 Flp-In 293 T-REx (HEK293) cells. The experiment can be described thus: light-induced TopBP1 condensate (nuclear foci) count, plate-normalised robust z-score vs non-control wells; higher = more TopBP1 condensates (negative = condensation inhibitor), active = hit call of the paper. The note with it: 10 µM; incubation time 2 h.
Consider `CCOC(=O)/C=C(C)/C=C/C=C(C)/C=C/c1c(C)cc(OC)c(C)c1C` [Etretinate], for which the “light-induced TopBP1 condensate (z-score)” value was inactive: -0.968.
Consider `C=CCOc1ccccc1OCC(O)CNC(C)C` (stereo not drawn) [Oxprenolol hydrochloride], for which the “light-induced TopBP1 condensate (z-score)” value is inactive: 0.694.
Then `NC[C@H]1O[C@H](O[C@H]2[C@H](O)[C@@H](O[C@H]3O[C@H](CO)[C@@H](O)[C@H](N)[C@H]3O)[C@H](N)C[C@@H]2N)[C@H](N)C[C@@H]1O` [Tobramycin], with inactive: -0.114; and `Cc1c(N)c(=O)n(-c2ccccc2)n1C` [Ampyrone], with inactive: 1.23.
In the case of `CCN(CCCCOC(=O)c1ccc(OC)c(OC)c1)C(C)Cc1ccc(OC)cc1` (stereo not drawn) [Mebeverine hydrochloride], the “light-induced TopBP1 condensate (z-score)” value is inactive: -1.13.
Then `CCN(CC)C(=O)C1(c2ccccc2)CC1CN` (stereo not drawn) [Milnacipran hydrochloride], with inactive: -1.42; and `Cc1cc(C(C)(C)C)cc(C)c1CC1=NCCN1` [Xylometazoline hydrochloride], with inactive: -0.581; and `O=P(O)(O)C(O)(Cn1ccnc1)P(=O)(O)O` [Zoledronic acid hydrate], with inactive: -1.03.
As for `CCN(CC)CCOCCOC(=O)C1(c2ccccc2)CCCC1` [Carbetapentane citrate], the “light-induced TopBP1 condensate (z-score)” value is inactive: 0.489.
For `CCN(CC)C(=O)Nc1ccc(OCC(O)CNC(C)(C)C)c(C(C)=O)c1` (stereo not drawn) [Celiprolol hydrochloride], the “light-induced TopBP1 condensate (z-score)” value was inactive: -0.488.
Then `N[C@H]1CONC1=O` [(S)-(-)-Cycloserine], with inactive: 0.424; and `CCCCC1C(=O)N(c2ccccc2)N(c2ccc(O)cc2)C1=O` (stereo not drawn) [Oxyphenbutazone], with inactive: -0.0542.
For the compound `COc1cc2nc(N3CCN(C(=O)C4COc5ccccc5O4)CC3)nc(N)c2cc1OC` (stereo not drawn) [Doxazosin mesylate], the “light-induced TopBP1 condensate (z-score)” value is inactive: -0.272.
Consider `CC(=O)Nc1ccc(OC(=O)c2ccccc2O)cc1` [Acetaminosalol], for which the “light-induced TopBP1 condensate (z-score)” value was inactive: 0.117.
As for `CCCOc1ccccc1-c1nc2[nH]nnc2c(=O)[nH]1` [Zaprinast], the “light-induced TopBP1 condensate (z-score)” value is inactive: 0.798.
`CCCCCCNC(=O)n1cc(F)c(=O)[nH]c1=O` [Carmofur]: the “light-induced TopBP1 condensate (z-score)” value was inactive: -0.119.
Then `CCC[C@@H]1C[C@@H](C(=O)N[C@@H]([C@H]2O[C@H](SC)[C@H](OP(=O)(O)O)[C@@H](O)[C@H]2O)[C@H](C)Cl)N(C)C1` [Clindamycin Phosphate], with inactive: 0.0741; and `COc1ccc(Cl)cc1C(=O)NCCc1ccc(S(=O)(=O)NC(=O)NC2CCCCC2)cc1` [Glibenclamide], with inactive: -0.301.
As to `Nc1nc(=O)n([C@@H]2CS[C@H](CO)O2)cc1F` [(-)-Emtricitabine], the “light-induced TopBP1 condensate (z-score)” value is inactive: -0.614.
In the case of `CC#C[C@]1(O)CC[C@H]2[C@@H]3CCC4=CC(=O)CCC4=C3[C@@H](c3ccc(N(C)C)cc3)C[C@@]21C` [Mifepristone], the “light-induced TopBP1 condensate (z-score)” value was inactive: 0.723.
Under `CC(C(O)c1ccc(O)cc1)N1CCC(Cc2ccccc2)CC1` (stereo not drawn) [Ifenprodil tartrate] stands inactive: 0.0496; under `CC(C)[C@H](N)C(=O)OCCOCn1cnc2c(=O)nc(N)[nH]c21` [Valacyclovir hydrochloride], inactive: 0.915; under `CN1CCN2c3ncccc3Cc3ccccc3C2C1` (stereo not drawn) [Mirtazapine], inactive: -0.78.
For `COC(=O)N/N=C/c1c[n+]([O-])c2ccccc2[n+]1[O-]` [Carbadox], the “light-induced TopBP1 condensate (z-score)” value was inactive: -0.249.
With `CN(C(=O)CN(CCO)CC(=O)N(C)C(C)(C)Cc1ccccc1)C(C)(C)Cc1ccccc1` [Oxethazaine], the “light-induced TopBP1 condensate (z-score)” value was inactive: 0.718.
Under `Cc1cc(C)nc(NS(=O)(=O)c2ccc(N)cc2)n1` [Sulfamethazine sodium salt] stands inactive: 0.285; under `COc1cc(NS(=O)(=O)c2ccc(N)cc2)ncn1` [Sulfamonomethoxine], inactive: 0.424; under `CC1(C)O[C@@H]2C[C@H]3[C@@H]4C[C@H](F)C5=CC(=O)C=C[C@]5(C)[C@@]4(F)[C@@H](O)C[C@]3(C)[C@]2(C(=O)CO)O1` [Fluocinolone acetonide], inactive: 0.184.
In the case of `C[C@]12CC[C@@H]3c4ccc(O)cc4C[C@@H](CCCCCCCCC[S+]([O-])CCCC(F)(F)C(F)(F)F)[C@H]3[C@@H]1CC[C@@H]2O` (stereo partly drawn) [Fulvestrant], the “light-induced TopBP1 condensate (z-score)” value is inactive: 1.39.
For `O=C(NCCCN1CCOCC1)c1ccc(Cl)cc1` [Eprobemide], the “light-induced TopBP1 condensate (z-score)” value was inactive: 0.149.
As to `CO/N=C(\C(=O)N[C@@H]1C(=O)N2C(C(=O)O)=C(COC(C)=O)CS[C@H]12)c1csc(N)n1` [Cefotaxime sodium salt], the “light-induced TopBP1 condensate (z-score)” value is inactive: 0.889.
Under `C/C(=C1\CCOC(=O)S1)N(C=O)Cc1cnc(C)nc1N` [Cycotiamine] stands inactive: 0.795.
Take `CCCCOc1cc(C(=O)OCCN(CC)CC)ccc1N` [Benoxinate hydrochloride]: the “light-induced TopBP1 condensate (z-score)” value is inactive: 0.824.
Under `Clc1ccc2nsnc2c1NC1=NCCN1` [Tizanidine hydrochloride] stands inactive: -1.1.
Turning to `CC(C)Oc1ccc2c(=O)c(-c3ccccc3)coc2c1` [Ipriflavone], the “light-induced TopBP1 condensate (z-score)” value is inactive: -0.431.
Turning to `CC(=O)Nc1nnc(S(N)(=O)=O)s1` [Acetazolamide], the “light-induced TopBP1 condensate (z-score)” value is inactive: 0.105.
As to `Cc1cc2cc3c(C)cc(=O)oc3c(C)c2o1` [Trioxsalen], the “light-induced TopBP1 condensate (z-score)” value was inactive: 0.189.
For the compound `CNCC(O)c1ccc(O)c(O)c1` (stereo not drawn) [Racepinephrine hydrochloride], the “light-induced TopBP1 condensate (z-score)” value was inactive: 0.0602.
On to `CCOC1O[C@H]([C@@H](COCc2ccccc2)OCc2ccccc2)[C@H](OCc2ccccc2)[C@H]1O` (stereo partly drawn) [Tribenoside], for which the “light-induced TopBP1 condensate (z-score)” value is inactive: 0.824.
In the case of `CC(=O)Nc1c(I)c(C(=O)N[C@H]2C(O)O[C@H](CO)[C@@H](O)[C@@H]2O)c(I)c(N(C)C(C)=O)c1I` (stereo partly drawn) [Metrizamide], the “light-induced TopBP1 condensate (z-score)” value was inactive: -0.12.
Take `CCN(CC)CCNC(=O)c1ccc(N)cc1` [Procainamide hydrochloride]: the “light-induced TopBP1 condensate (z-score)” value is inactive: 0.297.
As for `CCCCCCOc1ccccc1C(N)=O` [Exalamide], the “light-induced TopBP1 condensate (z-score)” value is inactive: -0.0804.
`C[C@@H]1CCC[C@H](C)N1NC(=O)c1ccc(Cl)c(S(N)(=O)=O)c1` [Clopamide]: the “light-induced TopBP1 condensate (z-score)” value was inactive: 0.858.
For the compound `CC[C@H]1OC(=O)[C@H](C)[C@@H](O[C@H]2C[C@@](C)(OC)[C@@H](O)[C@H](C)O2)[C@H](C)[C@@H](O[C@@H]2O[C@H](C)C[C@H](N(C)C)[C@H]2O)[C@](C)(O)C[C@@H](C)CN(C)[C@H](C)[C@@H](O)[C@]1(C)O` [Azithromycin], the “light-induced TopBP1 condensate (z-score)” value is inactive: 0.375.
As for `CN[C@H]1CC[C@@H](c2ccc(Cl)c(Cl)c2)c2ccccc21` [Sertraline], the “light-induced TopBP1 condensate (z-score)” value is inactive: -0.889.
Consider `Nc1ccc(S(=O)(=O)Nc2nccs2)cc1` [Sulfathiazole], for which the “light-induced TopBP1 condensate (z-score)” value is inactive: 0.994.
Turning to `CC(CNC1CCCCC1)OC(=O)c1ccccc1` (stereo not drawn) [Hexylcaine hydrochloride], the “light-induced TopBP1 condensate (z-score)” value was inactive: -0.526.
In the case of `Cc1ccc(-c2cc(C(F)(F)F)nn2-c2ccc(S(N)(=O)=O)cc2)cc1` [Celecoxib], the “light-induced TopBP1 condensate (z-score)” value was inactive: 0.651.
Then `CN1CCN(CC(=O)N2c3ccccc3C(=O)Nc3cccnc32)CC1` [Pirenzepine dihydrochloride], with inactive: 0.409; and `CC(=O)N(CC(O)CO)c1c(I)c(C(=O)NCC(O)CO)c(I)c(C(=O)NCC(O)CO)c1I` (stereo not drawn) [Iohexol], with inactive: 0.77.
As for `CN(CCCCCCCCCCN(C)C(=O)Oc1cccc([N+](C)(C)C)c1)C(=O)Oc1cccc([N+](C)(C)C)c1` [Demecarium bromide], the “light-induced TopBP1 condensate (z-score)” value is inactive: -0.616.
With `Cn1c(=O)c2c(ncn2CC2OCCO2)n(C)c1=O` [Doxofylline], the “light-induced TopBP1 condensate (z-score)” value was inactive: 0.565.
For `CCOc1nc2cccc(C(=O)O)c2n1Cc1ccc(-c2ccccc2-c2nnn[nH]2)cc1` [Candesartan], the “light-induced TopBP1 condensate (z-score)” value is inactive: -0.153.
With `CCCCNC(=N)NC(=N)N` [Buformin], the “light-induced TopBP1 condensate (z-score)” value was inactive: 1.05.
With `C[C@@](Cc1ccc(O)c(O)c1)(NN)C(=O)O` [Carbidopa], the “light-induced TopBP1 condensate (z-score)” value was inactive: -0.878.
On to `Nc1ncnc2c1ncn2[C@@H]1O[C@H](CO)[C@@H](O)[C@@H]1O` [Vidarabine], for which the “light-induced TopBP1 condensate (z-score)” value is inactive: 0.447.
Regarding `CC(=O)OC[C@H]1O[C@@H]([S-])[C@H](OC(C)=O)[C@@H](OC(C)=O)[C@@H]1OC(C)=O.CCP(CC)CC.[Au+]` [Auranofin], the “light-induced TopBP1 condensate (z-score)” value was active: -4.74.
For the compound `COc1cc(Nc2c(C#N)cnc3cc(OCCCN4CCN(C)CC4)c(OC)cc23)c(Cl)cc1Cl` [Bosutinib], the “light-induced TopBP1 condensate (z-score)” value was inactive: -2.03.
Turning to `CCCCc1oc2ccc(NS(C)(=O)=O)cc2c1C(=O)c1ccc(OCCCN(CCCC)CCCC)cc1` [Dronedarone hydrochloride], the “light-induced TopBP1 condensate (z-score)” value is inactive: 0.151.
Consider `CCC1(c2ccccc2)C(=O)NCNC1=O` [Primidone], for which the “light-induced TopBP1 condensate (z-score)” value is inactive: -0.71.
In the case of `CN(C)CCC(c1ccc(Br)cc1)c1ccccn1` (stereo not drawn) [Brompheniramine maleate], the “light-induced TopBP1 condensate (z-score)” value was inactive: 0.824.
`c1ccc(-c2ccc(C(c3ccccc3)n3ccnc3)cc2)cc1` (stereo not drawn) [Bifonazole]: the “light-induced TopBP1 condensate (z-score)” value was inactive: -0.772.
Consider `Oc1c(Cl)cc(Cl)c2cccnc12` [Chloroxine], for which the “light-induced TopBP1 condensate (z-score)” value is inactive: -0.15.
`O=C1CC[C@@H](C(=O)N2CSC[C@H]2C(=O)O)N1` [Pidotimod]: the “light-induced TopBP1 condensate (z-score)” value is inactive: -0.575.
For the compound `O=C(c1ccc(F)cc1)C1CCN(CCn2c(=O)[nH]c3ccccc3c2=O)CC1` [Ketanserin tartrate hydrate], the “light-induced TopBP1 condensate (z-score)” value was inactive: 0.829.
With `CCN(CC)C(=O)c1ccc(O)c(OC)c1` [Ethamivan], the “light-induced TopBP1 condensate (z-score)” value was inactive: 0.0651.
Under `Cc1[nH]cnc1CN1CCc2c(c3ccccc3n2C)C1=O` [Alosetron hydrochloride] stands inactive: -1.41; under `O=C(Cn1c(=O)sc2ccc(Cl)cc21)N1CCN(CCO)CC1` [Tiaramide Hydrochloride], inactive: 0.609.

The values are drawn from the supplement of paper PMC12582362.
